According to the supplement of paper PMC10369915:
This is one part of the list. Cut-off read from the data, not from the text of the source: active = 3.2 or more and inactive = the rest. The signal is at background level for most entries.

The binders below were run against SHP2 C-SH2 domain E139D (assay: enrichment score (SH2-bound / input frequency) (ratio); bacterial display of known human phosphotyrosine sites (pTyr-Var adds point mutants) read by sequencing; higher = stronger binding; tyrosines were phosphorylated by kinases first). Conditions: peptide library: pTyr-Var.
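Note: displayed peptides selected on beads carrying the immobilized SH2 domain, with library peptides lacking any tyrosine serving as negative controls.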

Enrichment score, active:
AKLVQYFMEHH [PTPN11_Y80_E76K_YF] 3.82
AVLVQYYMEHH [PTPN11_Y80_E76V] 3.25

Enrichment score, inactive:
CLMILYRLKER [PTPRR_Y249] 2.26
GPQGVYSNKLV [PTPN14_Y506] 0.731
GSERRYSREGG [PTPRN2_Y139] 0.27
RPQDGFRIVQH [PTPRT_Y1329_Y1329F] 0.91
AELVQYFMEHH [PTPN11_Y80_YF] 1.24
WEPFGFAVTRC [PTPRT_Y412_Y412F] 0.732
HKGASYVFRLS [PTPRD_Y891] 2.56
AALSAYAPQRP [PTPRN2_Y249_A251P] 0.704
AELVRYYMEHH [PTPN11_Y80_Q79R] 1.15
ADLVQYYMEHH [PTPN11_Y80_E76D] 1.33
ADLVQYFMEHH [PTPN11_Y80_E76D_YF] 1.18
RGFRVYFTPDS [PTPRF_Y450_YF] 2.9
AKLVQYYMEHH [PTPN11_Y80_E76K] 2.35

The binders below were run against SHP2 C-SH2 domain wild-type in the same assay as above. Conditions: peptide library: pTyr-Var.

Enrichment score, inactive:
CLMILYRLKER [PTPRR_Y249] 1.82
GPQGVYSNKLV [PTPN14_Y506] 0.456
GSERRYSREGG [PTPRN2_Y139] 0.359
RPQDGFRIVQH [PTPRT_Y1329_Y1329F] 0.704
AELVQYFMEHH [PTPN11_Y80_YF] 1.13
WEPFGFAVTRC [PTPRT_Y412_Y412F] 0.783
AVLVQYYMEHH [PTPN11_Y80_E76V] 2.61
HKGASYVFRLS [PTPRD_Y891] 2.46
AALSAYAPQRP [PTPRN2_Y249_A251P] 0.654
AELVRYYMEHH [PTPN11_Y80_Q79R] 1.21
ADLVQYYMEHH [PTPN11_Y80_E76D] 1.24
ADLVQYFMEHH [PTPN11_Y80_E76D_YF] 1.38
RGFRVYFTPDS [PTPRF_Y450_YF] 2.55
AKLVQYYMEHH [PTPN11_Y80_E76K] 2.68

Enrichment score, active:
AKLVQYFMEHH [PTPN11_Y80_E76K_YF] 3.53

Each binder was assayed against SHP2 N-SH2 domain L43F in the same assay as above. Conditions: peptide library: pTyr-Var.

Enrichment score, active:
AKLVQYFMEHH [PTPN11_Y80_E76K_YF] 3.87
AKLVQYYMEHH [PTPN11_Y80_E76K] 4.58

Enrichment score, inactive:
CLMILYRLKER [PTPRR_Y249] 2.08
GPQGVYSNKLV [PTPN14_Y506] 0.509
GSERRYSREGG [PTPRN2_Y139] 0.382
RPQDGFRIVQH [PTPRT_Y1329_Y1329F] 0.875
AELVQYFMEHH [PTPN11_Y80_YF] 1.23
WEPFGFAVTRC [PTPRT_Y412_Y412F] 0.561
AVLVQYYMEHH [PTPN11_Y80_E76V] 3.17
HKGASYVFRLS [PTPRD_Y891] 2.61
AALSAYAPQRP [PTPRN2_Y249_A251P] 0.72
AELVRYYMEHH [PTPN11_Y80_Q79R] 1.38
ADLVQYYMEHH [PTPN11_Y80_E76D] 1.3
ADLVQYFMEHH [PTPN11_Y80_E76D_YF] 1.24
RGFRVYFTPDS [PTPRF_Y450_YF] 2.41

Each binder was assayed against SHP2 N-SH2 domain T42A in the same assay as above. Conditions: peptide library: pTyr-Var.

Enrichment score, inactive:
AKLVQYFMEHH [PTPN11_Y80_E76K_YF] 3.02
CLMILYRLKER [PTPRR_Y249] 1.84
GPQGVYSNKLV [PTPN14_Y506] 0.448
GSERRYSREGG [PTPRN2_Y139] 0.381
RPQDGFRIVQH [PTPRT_Y1329_Y1329F] 0.648
AELVQYFMEHH [PTPN11_Y80_YF] 1.26
WEPFGFAVTRC [PTPRT_Y412_Y412F] 0.502
AVLVQYYMEHH [PTPN11_Y80_E76V] 2.6
HKGASYVFRLS [PTPRD_Y891] 1.84
AALSAYAPQRP [PTPRN2_Y249_A251P] 0.761
AELVRYYMEHH [PTPN11_Y80_Q79R] 0.932
ADLVQYYMEHH [PTPN11_Y80_E76D] 1.04
ADLVQYFMEHH [PTPN11_Y80_E76D_YF] 1.22
RGFRVYFTPDS [PTPRF_Y450_YF] 2.01
AKLVQYYMEHH [PTPN11_Y80_E76K] 2.3

What follows are binders tested against SHP2 N-SH2 domain T52S in the same assay as above. Conditions: peptide library: pTyr-Var.

Enrichment score, active:
AKLVQYFMEHH [PTPN11_Y80_E76K_YF] 3.51
AVLVQYYMEHH [PTPN11_Y80_E76V] 3.23
AKLVQYYMEHH [PTPN11_Y80_E76K] 5.5

Enrichment score, inactive:
CLMILYRLKER [PTPRR_Y249] 2.24
GPQGVYSNKLV [PTPN14_Y506] 0.416
GSERRYSREGG [PTPRN2_Y139] 0.487
RPQDGFRIVQH [PTPRT_Y1329_Y1329F] 0.607
AELVQYFMEHH [PTPN11_Y80_YF] 1.49
WEPFGFAVTRC [PTPRT_Y412_Y412F] 0.465
HKGASYVFRLS [PTPRD_Y891] 2.34
AALSAYAPQRP [PTPRN2_Y249_A251P] 0.758
AELVRYYMEHH [PTPN11_Y80_Q79R] 1.13
ADLVQYYMEHH [PTPN11_Y80_E76D] 1.47
ADLVQYFMEHH [PTPN11_Y80_E76D_YF] 1.44
RGFRVYFTPDS [PTPRF_Y450_YF] 2.56

These binders were tested against SHP2 N-SH2 domain wild-type in the same assay as above. Conditions: peptide library: pTyr-Var.

Enrichment score, inactive:
AKLVQYFMEHH [PTPN11_Y80_E76K_YF] 3.16
CLMILYRLKER [PTPRR_Y249] 1.86
GPQGVYSNKLV [PTPN14_Y506] 0.453
GSERRYSREGG [PTPRN2_Y139] 0.331
RPQDGFRIVQH [PTPRT_Y1329_Y1329F] 0.966
AELVQYFMEHH [PTPN11_Y80_YF] 1.19
WEPFGFAVTRC [PTPRT_Y412_Y412F] 1.1
AVLVQYYMEHH [PTPN11_Y80_E76V] 2.86
HKGASYVFRLS [PTPRD_Y891] 2.34
AALSAYAPQRP [PTPRN2_Y249_A251P] 1.05
AELVRYYMEHH [PTPN11_Y80_Q79R] 0.972
ADLVQYYMEHH [PTPN11_Y80_E76D] 1.23
ADLVQYFMEHH [PTPN11_Y80_E76D_YF] 1.29
RGFRVYFTPDS [PTPRF_Y450_YF] 2.02
AKLVQYYMEHH [PTPN11_Y80_E76K] 2.41
